# From the RNAGym collection of RNA variant scans (doi:10.1093/nar/gkz1192)
# The source gives no read counts; variants with many changes may rest on few reads.
# B1: CPEB3 Ribozyme (parent)
# chain: UAACAGGGGGCCACAGCAGAAGCGUUCACGUCGCAGCCCCUGUCAGAUUCUGGUGAAUCUGCGAAUUCUGCUGUAUAUCUC
# Variants of: B1
# Test: self-cleavage, relative activity (ratio to wild type); higher = more cleavage; in vitro, sequencing
# How it was run: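 Relative activity compares each variant's cleaved/total read fraction with that of the unmutated ribozyme. To get these fractions, barcoded CPEB3 ribozyme libraries from rounds of error-prone PCR were transcribed with T7 RNA polymerase for 5 hours at 37°C and then given 15 min of DNase I treatment before EDTA was added. The RNAs were reverse transcribed with template switching and sequenced on Illumina, and DNA sequencing linked barcodes to variants. A minimum of 5 reads applied, and three batches were averaged.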
row,Variant,self-cleavage
1,UAACAGGGGGCCACAGCAGAAGCGUUCACGUCGCAGCCCCUGACGGAUUCUGGUGAAUCUGCGAAUCCUGCUGUAUAUCUC [U43A A45G U67C],0.12
2,UAACAGGGGGCCACAGCAGAAGCGUUCACGUCGCAGCCCCUAUCAGAUUCUGGUGAAUCUGCGUAUUCUGCUGUAAAUCUC [G42A A64U U76A],0.28
3,UAACAGGGGGCCACAGCAGAAGCGUUCACGUCGCAGCCCCUCUCAGACUCUGGUGAAUCUGCGAAUUCUGCUGUAUAUCCC [G42C U48C U80C],0.28
4,UAACAGGGGGCCACAGCAGAAGCGUUCACGUCGCAGCCCCUUUCAGAUUCUGGUGUAUCUGCAAAUUCUGCUGGAUAUCUC [G42U A56U G63A U74G],0.31
5,UAACAGGGGGCCACAGCAGAAGCGUUCACGUCGCAGCCCCUUUCAGAUUCUGGUGAAUCUGCGAAUUCUGCUGUUUACCUC [G42U A75U U78C],0.23
6,UAACAGGGGGCCACAGCAGAAGCGUUCACGUCGCAGCCCCUCUCAGAUUCUGGUGAAUCAGCGAAUUCUGCUGUAAAUCCC [G42C U60A U76A U80C],0.33
7,UAACAGGGGGCCACAGCAGAAGCGUUCACGUCGCAGCCCCUAUCAGAUUCUGGUGAAUCAGCGAAUUCUGCAGUAUAUCUC [G42A U60A U72A],0.09
8,UAACAGGGGGCCACAGCAGAAGCGUUCACGUCGCAGCCCCUAUCAGAUUCUGGUGAAUCCGCGAAUCCUGCUAUAUACCUC [G42A U60C U67C G73A U78C],0.07
9,UAACAGGGGGCCACAGCAGAAGCGUUCACGUCGCAGCCCCUGACGGAUUCUGGUGAAUCUGCGAAUUCUGCUGCAUAUCUC [U43A A45G U74C],1.26
10,UAACAGGGGGCCACAGCAGAAGCGUUCACGUCGCAGCCCCUCCCUGAUUCUGGUGGAUCUGCGAAUUCUGCCGUAUAGCUC [G42C U43C A45U A56G U72C U78G],0.25
11,UAACAGGGGGCCACAGCAGAAGCGUUCACGUCGCAGCCCCUAUCAGAUUCUGGUGGAUCUGCGAAUCCUGCAGUAUAUCUC [G42A A56G U67C U72A],0.03
12,UAACAGGGGGCCACAGCAGAAGCGUUCACGUCGCAGCCCCUGACUGAUUCUGGUGAAUCUUCGAAUUCUGCUGUAUAUCUC [U43A A45U G61U],0.11
13,UAACAGGGGGCCACAGCAGAAGCGUUCACGUCGCAGCCCCGGUCAGAUUCUGGUGAAUCUGCGAAUCCCGCUGUAUAUCUC [U41G U67C U69C],0.06
14,UAACAGGGGGCCACAGCAGAAGCGUUCACGUCGCAGCCCCUAUCAGAUUCUGGUGAAUCUGCAAAUUCUGCUGUAUACCUC [G42A G63A U78C],0.26
15,UAACAGGGGGCCACAGCAGAAGCGUUCACGUCGCAGCCCCUAUCAGAUUCUGGUGAACCUGCGUAUUCAGCUGUAUAUCUC [G42A U58C A64U U69A],0.15
16,UAACAGGGGGCCACAGCAGAAGCGUUCACGUCGCAGCCCCUGACGGAUUCUGGUGAAUCAGCGAAUUCUGCUGUAUAUCUC [U43A A45G U60A],0.34
17,UAACAGGGGGCCACAGCAGAAGCGUUCACGUCGCAGCCCCUUUCAGAUCCUGGUGAAUUUGCGAAUUCUGCUGCAUAUCUC [G42U U49C C59U U74C],0.16

row,Variant,self-cleavage
1,UAACAGGGGGCCACAGCAGAAGCGUUCACGUCGCAGCCCCUAUCAGACUCUGGUGAGUCUGCGAACUCUGCUGUAUAUCUC [G42A U48C A57G U66C],0.38
2,UAACAGGGGGCCACAGCAGAAGCGUUCACGUCGCAGCCCCUCUCAGAUCCUGGUGAAUUUGCGAAUUCUGCUGUAUAUCUC [G42C U49C C59U],0.1
3,UAACAGGGGGCCACAGCAGAAGCGUUCACGUCGCAGCCCCUGACUGAUUCUGGUGUAUCUGCGAACUCUGCUGUAUAUCUC [U43A A45U A56U U66C],0.06
4,UAACAGGGGGCCACAGCAGAAGCGUUCACGUCGCAGCCCCUUUCAGAUUCUGGUGGAUCUGCGAUUUCUGCUGUAUAUCUC [G42U A56G A65U],0.18
5,UAACAGGGGGCCACAGCAGAAGCGUUCACGUCGCAGCCCCUCUCAGAUUCUGGAGAAUCUGCGAAUUCUGCUGUUUAUCUC [G42C U54A A75U],0.49
6,UAACAGGGGGCCACAGCAGAAGCGUUCACGUCGCAGCCCCUAUCAGAUUCUGUUGAAUCUGCGGAUCCCGCUGUAUAUCUC [G42A G53U A64G U67C U69C],0.1
7,UAACAGGGGGCCACAGCAGAAGCGUUCACGUCGCAGCCCCUAUCAGAUUCUGGUGAAUCCGCGAAUACUGCUGUAUAUCUC [G42A U60C U67A],0.16
8,UAACAGGGGGCCACAGCAGAAGCGUUCACGUCGCAGCCCCUUUCAGAUUCAGGUGAAUCUGCGAAUUCUGCUGCAUAUCUC [G42U U51A U74C],0.34
9,UAACAGGGGGCCACAGCAGAAGCGUUCACGUCGCAGCCCCUAUCACAUUCUGGUGAAUCUGCGAAUUCAGCAGUAUAUCUC [G42A G46C U69A U72A],0.07
10,UAACAGGGGGCCACAGCAGAAGCGUUCACGUCGCAGCCCCUCUCAGAUUCUGGUGAUUCUGCGAUUUCUGCUGUAUAUCUC [G42C A57U A65U],0.06
11,UAACAGGGGGCCACAGCAGAAGCGUUCACGUCGCAGCCCCUGACGGGUUCUGGUGAAUCUCCGAAUUCUGCAGCAUAUCUC [U43A A45G A47G G61C U72A U74C],0.12
12,UAACAGGGGGCCACAGCAGAAGCGUUCACGUCGCAGCCCCUCUCAGAUUCUGGUGGAUCAGCGAAUUCUGCUGUAUAUCUC [G42C A56G U60A],0.07
13,UAACAGGGGGCCACAGCAGAAGCGUUCACGUCGCAGCCCCUCUCAGGUUCUGGUGUAUCAGCGAAUUCUGCUGUAUAUCUC [G42C A47G A56U U60A],0.13
14,UAACAGGGGGCCACAGCAGAAGCGUUCACGUCGCAGCCCCUAUCAGAUUCUGGUGAACCUGCGAAUCCUGCUGUAUAUCUC [G42A U58C U67C],0.12
15,UAACAGGGGGCCACAGCAGAAGCGUUCACGUCGCAGCCCCUGACGGAUUCUGGUGAAUCUGCGAAUUCUGCCGUAUAUCAC [U43A A45G U72C U80A],1.16
16,UAACAGGGGGCCACAGCAGAAGCGUUCACGUCGCAGCCCCUGACGGAUUCUGGUGAAUCUGCGAAUUCUGCUGUAAAUCUC [U43A A45G U76A],0.71
17,UAACAGGGGGCCACAGCAGAAGCGUUCACGUCGCAGCCCCUUUAAGAUUCUGGUGAAUCUGCGAAUUCAGCUGUAUAUCUC [G42U C44A U69A],0.17
